Consider 1 substance from article PMC7564666.

Results are given in words; binding and its absence hold for the method and conditions named. Binding seen in cells or lysates may run through a third protein. Some entries that bind do so weakly or less than the wild type. Tags and fused reporters may be left off the sequences shown.

Holding throughout (assay): pull-down; 1.5 nmol GST-LASP1 or its domains on glutathione-agarose beads with 1 mg of 231S total protein lysate, 2 h at 4 °C, washed with lysis buffer (100 mM NaCl, 50 mM Tris pH 8.0, 0.1% deoxycholate, 0.1% IGEPAL CA-630, 5 mM EDTA); Western blot; only the target purified
A general note: A western blot detects proteins with antibodies after separation by electrophoresis.

Experiment [1] deals with T1, GST-LASP1 (full length LIM and SH3 Protein 1, residues 1–261) (human) (UniProt Q14847).
T1 sequence: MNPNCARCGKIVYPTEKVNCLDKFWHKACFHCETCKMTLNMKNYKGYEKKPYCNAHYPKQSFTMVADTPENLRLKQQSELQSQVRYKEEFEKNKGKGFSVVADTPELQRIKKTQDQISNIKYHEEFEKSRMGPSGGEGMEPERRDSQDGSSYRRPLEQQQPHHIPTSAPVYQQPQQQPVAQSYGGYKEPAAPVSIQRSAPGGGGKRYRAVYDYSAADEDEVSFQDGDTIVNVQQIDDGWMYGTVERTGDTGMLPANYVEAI

The target of experiment [2] is T2, GST-LASP1 SH3 domain (residues 200–261) (human) (UniProt Q14847).
T2 sequence: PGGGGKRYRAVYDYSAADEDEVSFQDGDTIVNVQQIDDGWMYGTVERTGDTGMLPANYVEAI

Experiment [3] addresses T3, GST-LASP1 LIM domain (residues 1–60) (human) (UniProt Q14847).
T3 sequence: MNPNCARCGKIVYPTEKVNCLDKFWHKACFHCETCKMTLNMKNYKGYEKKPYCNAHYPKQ

Take “Argonaute 1 (Ago1), endogenous (from UniProt Q9UL18 1-857)”: the binding entry was “binds” in experiment [1], “binds” in experiment [2] and “no binding” in experiment [3].
